In the supplement of paper PMC9446081:
Out of some 39,000 compounds screened, about 220 (0.56%) showed activity. Some of the results follow.

These molecules were tested on Escherichia coli K-12 BW25113 (assay: relative growth (OD600 normalised to plate interquartile mean) (fraction); higher = less growth inhibition, active = 0.2 or less). Details: 50 µM; LB; incubation time: overnight (16-24 h).
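Further: static incubation at 37 °C against the wild-type strain, values averaged over two biological replicates.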

Structure (SMILES)	relative growth
C[C@@H]1CN([C@@H](C)CO)C(=O)c2cc(NC(=O)CCC(F)(F)F)ccc2O[C@@H](C)CCCCO[C@H]1CN(C)Cc1ccc(Cl)c(Cl)c1	inactive: 1.06
COc1ccc(NC(=O)Nc2ccc3c(c2)CC(=O)N([C@@H](C)CO)C[C@H](C)[C@H](CN(C)Cc2ccc(C(=O)Nc4ccccc4N)cc2)O3)cc1	inactive: 0.99
CCCNC(=O)N1C[C@@H](O)COC[C@@H]2O[C@H](CC(=O)NCc3ccncn3)CC[C@H]21	inactive: 1.01
C[C@H](CO)N1C[C@H](C)[C@@H](CN(C)CC2CCCCC2)Oc2ccc(NC(=O)Cc3cn(C)c4ccccc34)cc2C1=O	inactive: 0.979
COc1ccc(NC(=O)Nc2ccc3c(c2)C(=O)N([C@@H](C)CO)C[C@H](C)[C@H](CN(C)Cc2ccc(C(=O)Nc4ccccc4N)cc2)O3)cc1	inactive: 1
COc1ccsc1C(N)=O	inactive: 0.993
Cc1noc(C)c1S(=O)(=O)N(C)C[C@H]1Oc2c(NS(=O)(=O)c3ccccc3)cccc2C(=O)N([C@@H](C)CO)C[C@H]1C	inactive: 1.02
C[C@H]1CN([C@@H](C)CO)C(=O)Cc2cc(NS(=O)(=O)c3ccc(Cl)cc3)ccc2O[C@@H]1CN(C)C	inactive: 0.986
O=c1nc[nH]c2c1ncn2[C@@H]1O[C@H](CO)[C@@H](O)[C@H]1O	inactive: 1.03
C[C@@H]1CCCCO[C@H](CN(C)CC2CCCCC2)[C@H](C)CN([C@H](C)CO)C(=O)c2cc(NC(=O)Nc3ccc(F)cc3)ccc2O1	inactive: 0.984
C[C@H]1CN([C@@H](C)CO)C(=O)c2cc(C#CCN(C)C)cnc2O[C@H]1CN(C)S(C)(=O)=O	inactive: 1.01
C[C@H]1CN([C@@H](C)CO)C(=O)c2cccc(NC(=O)Nc3ccc(C(F)(F)F)cc3)c2O[C@@H]1CN(C)Cc1ccc2c(c1)OCO2	inactive: 0.829
CCCCCCCCCCCCCCCCCCCCCCCCCCCCO	inactive: 1.01
COc1ccc(C(=O)c2ccc(C)cc2)c(O)c1	inactive: 1.01
C[C@H](CO)N1C[C@H](C)[C@@H](CN(C)C(=O)Nc2cccc3ccccc23)Oc2ccc(NC(=O)CCC(F)(F)F)cc2CC1=O	inactive: 1.03
CC12CCC(O)CC1=CCC1C2CCC2(C)C(c3cccnc3)=CCC12 (stereo not given)	inactive: 0.956
COc1ccc(S(=O)(=O)Nc2ccc3c(c2)C(=O)N([C@H](C)CO)C[C@H](C)[C@@H](CN(C)Cc2ccc(Cl)c(Cl)c2)OCCCC[C@@H](C)O3)cc1	inactive: 1.02
Cc1noc(C)c1S(=O)(=O)Nc1ccc2c(c1)CC(=O)N([C@@H](C)CO)C[C@H](C)[C@@H](CN(C)S(=O)(=O)c1ccccc1)O2	inactive: 0.973
C[C@H](CO)N1C[C@H](C)[C@H](CN(C)S(=O)(=O)c2cn(C)cn2)OCCCC[C@H](C)Oc2ccc(NS(=O)(=O)c3ccccc3)cc2C1=O	inactive: 0.99
O=C(CN1CCOCC1)NCC[C@@H]1CC[C@@H](NC(=O)c2ccccc2F)[C@H](CO)O1	inactive: 0.994

Structure (SMILES)	relative growth
C[C@@H]1CN([C@@H](C)CO)C(=O)Cc2cc(NC(=O)Nc3cccc4ccccc34)ccc2O[C@H]1CN(C)Cc1ccncc1	inactive: 1.01
C[C@@H]1CCCCO[C@H](CN(C)S(=O)(=O)c2ccccc2)[C@@H](C)CN([C@@H](C)CO)C(=O)c2cc(NC(=O)Nc3ccc(C(F)(F)F)cc3)ccc2O1	inactive: 0.982
Cc1ccc2nc(Nc3ccccc3)nc(-c3ccccc3)c2c1	inactive: 0.927
NC(=O)NC(=O)Cc1ccccc1	inactive: 1.07
CCOC(=O)Cc1c(C)[nH]c(=O)[nH]c1=O	inactive: 1.05
C[C@@H]1CCCCO[C@H](CN(C)Cc2ccc(C(=O)O)cc2)[C@@H](C)CN([C@@H](C)CO)C(=O)c2cc(NC(=O)C3CCCCC3)ccc2O1	inactive: 1
C[C@H]1CCCCO[C@@H](CN(C)S(=O)(=O)c2cccs2)[C@@H](C)CN([C@@H](C)CO)C(=O)c2cc(NS(=O)(=O)c3cn(C)cn3)ccc2O1	inactive: 0.987
C[C@@H]1CN([C@H](C)CO)C(=O)c2cccc(NC(=O)Nc3ccc(C(F)(F)F)cc3)c2O[C@H]1CN(C)Cc1ccc(Oc2ccccc2)cc1	inactive: 0.967
CN(C)C(=O)c1cccc(-c2ccc3n(c2=O)C[C@@H]2[C@@H](CO)[C@H](C(=O)NCC4CC4)N[C@H]32)c1	inactive: 0.96
C[C@H]1CN([C@@H](C)CO)C(=O)c2ccccc2-c2ccccc2CO[C@@H]1CN(C)Cc1ccccc1C(F)(F)F	inactive: 1.1
CCOC(=O)[C@H]1[C@@H]2[C@@H](Cc3ccccc3N)[C@@H](C(=O)OCC)N(c3ccc(OC)cc3)C(=O)[C@@]23C=C[C@@H]1O3	inactive: 1.02
C[C@@H]1CN([C@H](C)CO)C(=O)c2cccc(NS(C)(=O)=O)c2O[C@@H]1CN(C)C(=O)Nc1ccc2c(c1)OCO2	inactive: 1.03
C[C@H](CO)N1C[C@H](C)[C@H](CN(C)C(=O)Nc2cccc3ccccc23)Oc2c(NC(=O)Nc3ccccc3)cccc2C1=O	inactive: 1.02
Cc1noc(C)c1S(=O)(=O)Nc1cccc2c1O[C@@H](CN(C)C(=O)NC(C)C)[C@@H](C)CN([C@H](C)CO)C2=O	inactive: 0.982
Cc1ccc(S(=O)(=O)Nc2ccc3c(c2)C(=O)N([C@@H](C)CO)C[C@H](C)[C@H](CN(C)S(=O)(=O)c2ccc(Cl)cc2)OCCCC[C@@H](C)O3)cc1	inactive: 1.02
CNC(=O)CN1CCOC[C@]2(CCCN(C(=O)c3ccn(C)n3)C2)C1	inactive: 0.99
C[C@@H]1CCCCO[C@H](CN(C)Cc2ccc(Cl)c(Cl)c2)[C@H](C)CN([C@@H](C)CO)C(=O)c2cc(NC(=O)Nc3ccc(C(F)(F)F)cc3)ccc2O1	inactive: 1.03
O=C(C[C@@H]1CC=CC[C@H](NC(=O)OCC2c3ccccc3-c3ccccc32)C(=O)OC[C@H](Cc2ccccc2)NC1=O)N[C@H](CO)Cc1ccccc1	inactive: 0.961
CO[C@@H]1CN(C)C(=O)c2cc(NC(=O)Nc3ccc(Cl)cc3)ccc2OC[C@@H](C)N(C(=O)Nc2c(C)noc2C)C[C@H]1C	inactive: 1
C[C@H]1CN([C@@H](C)CO)S(=O)(=O)c2ccc(C#CC3CC3)cc2O[C@H]1CN(C)Cc1ccccc1F	inactive: 1.02

Structure (SMILES)	relative growth
C/C=C/c1ccc2c(c1)O[C@@H](CN(C)S(=O)(=O)c1ccc(C)cc1)[C@@H](C)CN([C@H](C)CO)S2(=O)=O	inactive: 1.01
CCC[C@@H](O)C#Cc1cnc2c(c1)C(=O)N([C@H](C)CO)C[C@H](C)[C@H](CN(C)S(=O)(=O)c1ccc(OC)cc1)O2	inactive: 1.03
Cn1cnc(S(=O)(=O)N2C[C@@H](O)COC[C@H]3O[C@H](CC(=O)NCc4cccc(F)c4)CC[C@@H]32)c1	inactive: 0.98
O=C(C[C@@H]1CC[C@H]2[C@@H](COC[C@@H](O)CN2S(=O)(=O)c2ccccc2)O1)NCc1ccc2c(c1)OCO2	inactive: 0.964
COc1ccc(-c2ccc3c(c2)O[C@@H](CN(C)CC2CCOCC2)[C@@H](C)CN([C@H](C)CO)S3(=O)=O)cc1	inactive: 0.976
Cc1ccc(S(=O)(=O)Nc2ccc3c(c2)CC(=O)N([C@H](C)CO)C[C@@H](C)[C@H](CN(C)C(=O)Nc2ccc(C(F)(F)F)cc2)O3)cc1	inactive: 0.991
C[C@H]1CN([C@@H](C)CO)C(=O)c2cc(NC(=O)Nc3cccc4ccccc34)ccc2O[C@H]1CN(C)S(=O)(=O)c1ccc(F)cc1	inactive: 1.05
CN(C)C(=O)c1ccc(-c2cccc(-c3nc(C(=O)NC4CCCC4)cc4c3[C@H](CCO)N([S@@](=O)C(C)(C)C)C4)c2)cc1	inactive: 0.991
COc1cccc(S(=O)(=O)N[C@@H]2CC[C@H](CC(=O)NC3CCC3)O[C@H]2CO)c1	inactive: 0.992
O=C(C[C@@H]1C=C[C@H](NC(=O)Nc2cc(F)ccc2F)[C@@H](CO)O1)NCCCN1CCOCC1	inactive: 1.02
C[C@@H]1CCCCO[C@@H](CN(C)C(=O)NC2CCCCC2)[C@H](C)CN([C@@H](C)CO)C(=O)c2cc(NC(=O)Nc3ccc(F)cc3)ccc2O1	inactive: 1.04
COc1ccc(C#Cc2ccc3c(c2)[C@]2(C(=O)N3)[C@H](C(=O)N3CCc4cc(OC)c(OC)cc4C3)[C@H]3C(=O)O[C@H](c4ccccc4)[C@H](c4ccccc4)N3[C@@H]2c2ccc(OCCO)cc2)cc1	inactive: 1.08
C[C@@H]1CN([C@H](C)CO)C(=O)c2cc(NC(=O)Nc3ccc(F)cc3)ccc2O[C@H]1CN(C)Cc1ccc(-c2ccccc2)cc1	inactive: 0.97
C[C@@H]1CN([C@H](C)CO)C(=O)Cc2cc(NS(=O)(=O)c3ccc(F)cc3)ccc2O[C@@H]1CN(C)S(=O)(=O)c1cccs1	inactive: 0.981
COCCN1C[C@@H]2CN(C(=O)c3cnn(C)c3)C[C@H]2C1=O	inactive: 0.908
CC(C)NC(=O)Nc1ccc2c(c1)C(=O)N([C@@H](C)CO)C[C@H](C)[C@H](CN(C)C(=O)Nc1ccccc1)OCCCC[C@H](C)O2	inactive: 0.992
COCCN1[C@@H]2COC[C@H]1CN(S(=O)(=O)c1cn(C)cn1)C2	inactive: 0.98
CC(C)c1c(O)ccc2c1CCC1C(C)(C)CCCC21C (stereo not given)	inactive: 0.993
C[C@@H]1CCCCO[C@@H](CN(C)S(=O)(=O)c2cccs2)[C@H](C)CN([C@H](C)CO)C(=O)c2cc(NC(=O)Cc3ccccc3)ccc2O1	inactive: 1
C[C@@H]1CN([C@H](C)CO)C(=O)c2cccc(NS(=O)(=O)c3ccccc3)c2O[C@H]1CN(C)Cc1ccc(Cl)c(Cl)c1	inactive: 1.01
